Experimental data from the supplement of paper PMC12067230.
This is a noisy data set.

Assay: amyloid nucleation score relative to library mode (yeast Sup35 reporter selection) (log enrichment difference); higher = more amyloid nucleation; sequences are the first 22 residues of the Bri2 peptide extended by up to 12 random residues
Settings: random library (experiment): 2;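 active = nucleation score significantly above 0 at FDR 0.05; inactive = not significantly above 0 or absent from output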
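Note: [psi-pin-] Saccharomyces cerevisiae expressing SupN fusions, induced by 100 µM Cu2SO4, selected 7 d at 30 °C without adenine and uracil, scored by deep sequencing of output versus input.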

Sequence | amyloid nucleation score
EASNCFAIRHFENKFAVETLICVILFYAFVLSMG | 6.48
EASNCFAIRHFENKFAVETLICVILHMNITSFDW | inactive
EASNCFAIRHFENKFAVETLICVILLLSICFLRM | -0.122
EASNCFAIRHFENKFAVETLICVIM | 8.48
EASNCFAIRHFENKFAVETLICVIMFGWAAPRWT | inactive
EASNCFAIRHFENKFAVETLICVIMWHFRDNE | -0.231
EASNCFAIRHFENKFAVETLICVIMWNIEPCRLL | inactive
EASNCFAIRHFENKFAVETLICVIMWQNLPYFGK | inactive
EASNCFAIRHFENKFAVETLICVIN | 8.24
EASNCFAIRHFENKFAVETLICVIRCRQGYMNKL | inactive
EASNCFAIRHFENKFAVETLICVIRFFYQSFD | inactive
EASNCFAIRHFENKFAVETLICVIRGHVV | inactive
EASNCFAIRHFENKFAVETLICVIRNIIALMGRQ | inactive
EASNCFAIRHFENKFAVETLICVIRPVCCIRHVL | inactive
EASNCFAIRHFENKFAVETLICVISAFEH | 4.05
EASNCFAIRHFENKFAVETLICVISSIRGFMFVL | inactive
EASNCFAIRHFENKFAVETLICVITIV | inactive
EASNCFAIRHFENKFAVETLICVITQHSLLALWG | inactive

Sequence | amyloid nucleation score
EASNCFAIRHFENKFAVETLICVITVRISRSFLC | inactive
EASNCFAIRHFENKFAVETLICVIVATCCHPVSV | inactive
EASNCFAIRHFENKFAVETLICVIVCNYQVIPAC | 0.693
EASNCFAIRHFENKFAVETLICVIVCTCTVRFSM | inactive
EASNCFAIRHFENKFAVETLICVIVTMSPEVYVC | inactive
EASNCFAIRHFENKFAVETLICVKCTFRILITCT | inactive
EASNCFAIRHFENKFAVETLICVKDGNS | -0.0488
EASNCFAIRHFENKFAVETLICVKDKYDSVMLPW | 1.8
EASNCFAIRHFENKFAVETLICVKEYSNATYCDP | inactive
EASNCFAIRHFENKFAVETLICVKHNFDAPVRHG | 3.46
EASNCFAIRHFENKFAVETLICVKMPSYWLYVRA | -0.215
EASNCFAIRHFENKFAVETLICVKMVMSHNRDSK | 0.315
EASNCFAIRHFENKFAVETLICVKPIS | inactive
EASNCFAIRHFENKFAVETLICVKSDLSFIPWHE | inactive
EASNCFAIRHFENKFAVETLICVKSYFGSQAEAC | inactive
EASNCFAIRHFENKFAVETLICVKTPQYYFRYLL | inactive
EASNCFAIRHFENKFAVETLICVKVCKIVFPACE | inactive
EASNCFAIRHFENKFAVETLICVKVCSRDDICYV | 0.5

Same assay, conditions: random library (experiment): 3

Sequence | amyloid nucleation score
EASNCFAIRHFENKFAVETLICVIEMRHQKCS | inactive
EASNCFAIRHFENKFAVETLICVIGLRHAFRSNV | inactive
EASNCFAIRHFENKFAVETLICVIIALEIQVNRE | inactive
EASNCFAIRHFENKFAVETLICVIKFSYVRGAS | inactive
EASNCFAIRHFENKFAVETLICVIMLQGKMGTSV | inactive
EASNCFAIRHFENKFAVETLICVINCGQMVMKTR | inactive
EASNCFAIRHFENKFAVETLICVISGIKVFGWLW | inactive
EASNCFAIRHFENKFAVETLICVITSTRRRWAGE | 3.43
EASNCFAIRHFENKFAVETLICVITWKRRLIE | inactive
EASNCFAIRHFENKFAVETLICVIVRPFVWIAFG | inactive
EASNCFAIRHFENKFAVETLICVIVWRTSTRERG | inactive
EASNCFAIRHFENKFAVETLICVIWPMKLELVTG | 1.71
EASNCFAIRHFENKFAVETLICVIYYGHRCSGAS | 1.64
EASNCFAIRHFENKFAVETLICVKEQQV | inactive
EASNCFAIRHFENKFAVETLICVKGRVRKLCFLS | inactive
EASNCFAIRHFENKFAVETLICVKIELNSKATTE | 0.0651
EASNCFAIRHFENKFAVETLICVKKAFYQRDVVS | inactive
EASNCFAIRHFENKFAVETLICVKKVKAILHSSL | inactive
EASNCFAIRHFENKFAVETLICVKMYSWFVVVGV | inactive
EASNCFAIRHFENKFAVETLICVKPLTS | 0.0367
EASNCFAIRHFENKFAVETLICVKQRIPGMGSGR | 2.37
EASNCFAIRHFENKFAVETLICVKRW | inactive
EASNCFAIRHFENKFAVETLICVKSFQQLVIEIV | inactive
